Results as given in PubChem BioAssay AID504332 (National Center for Advancing Translational Sciences (NCATS), 2011).
In all, about 350,000 compounds went through this assay and about 31,000 (8.9%) were called active. The inconclusive results got no clear call from the source; some entries with a clear call stand among them for comparison. Calls follow the shape of the dose curve; as a rule, active = well fitted inhibition curve with a large enough effect; inconclusive = small, poorly fitted or top-dose-only effect; inactive = no such curve, though single readings can be large or run the other way. Potencies beside an inconclusive call are fits to weak or partial responses and may not hold up.

Each compound was assayed against Histone-lysine N-methyltransferase EHMT2 (Homo sapiens) (UniProt Q96KQ7) (assay: qHTS Assay for Inhibitors of Histone Lysine Methyltransferase G9a). Details: G9a H3K9 monomethylation, AlphaScreen, 2 h; activity, negative = inhibition: at 59 µM (top of the series) unless noted.
Method in brief: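 Readings reflect AlphaScreen signal from monomethyl-H3K9 antibody detection. HMT at 20 nM; substrate b-H3K9 500 nM; cofactor SAM 20 uM; 2 h RT reaction; compounds tested as titrations in qHTS with 15 min preincubation.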
% is scaled to controls: 0 for no effect and ±100 for the full control effect; potency is read from the fitted curve at half-maximal effect; tags tell the direction and shape of the fitted curve.
Also: nearly all actives have a fitted effect of over 75% in size.

Chain of UniProt Q96KQ7 (Q96KQ7 whole entry, looked up): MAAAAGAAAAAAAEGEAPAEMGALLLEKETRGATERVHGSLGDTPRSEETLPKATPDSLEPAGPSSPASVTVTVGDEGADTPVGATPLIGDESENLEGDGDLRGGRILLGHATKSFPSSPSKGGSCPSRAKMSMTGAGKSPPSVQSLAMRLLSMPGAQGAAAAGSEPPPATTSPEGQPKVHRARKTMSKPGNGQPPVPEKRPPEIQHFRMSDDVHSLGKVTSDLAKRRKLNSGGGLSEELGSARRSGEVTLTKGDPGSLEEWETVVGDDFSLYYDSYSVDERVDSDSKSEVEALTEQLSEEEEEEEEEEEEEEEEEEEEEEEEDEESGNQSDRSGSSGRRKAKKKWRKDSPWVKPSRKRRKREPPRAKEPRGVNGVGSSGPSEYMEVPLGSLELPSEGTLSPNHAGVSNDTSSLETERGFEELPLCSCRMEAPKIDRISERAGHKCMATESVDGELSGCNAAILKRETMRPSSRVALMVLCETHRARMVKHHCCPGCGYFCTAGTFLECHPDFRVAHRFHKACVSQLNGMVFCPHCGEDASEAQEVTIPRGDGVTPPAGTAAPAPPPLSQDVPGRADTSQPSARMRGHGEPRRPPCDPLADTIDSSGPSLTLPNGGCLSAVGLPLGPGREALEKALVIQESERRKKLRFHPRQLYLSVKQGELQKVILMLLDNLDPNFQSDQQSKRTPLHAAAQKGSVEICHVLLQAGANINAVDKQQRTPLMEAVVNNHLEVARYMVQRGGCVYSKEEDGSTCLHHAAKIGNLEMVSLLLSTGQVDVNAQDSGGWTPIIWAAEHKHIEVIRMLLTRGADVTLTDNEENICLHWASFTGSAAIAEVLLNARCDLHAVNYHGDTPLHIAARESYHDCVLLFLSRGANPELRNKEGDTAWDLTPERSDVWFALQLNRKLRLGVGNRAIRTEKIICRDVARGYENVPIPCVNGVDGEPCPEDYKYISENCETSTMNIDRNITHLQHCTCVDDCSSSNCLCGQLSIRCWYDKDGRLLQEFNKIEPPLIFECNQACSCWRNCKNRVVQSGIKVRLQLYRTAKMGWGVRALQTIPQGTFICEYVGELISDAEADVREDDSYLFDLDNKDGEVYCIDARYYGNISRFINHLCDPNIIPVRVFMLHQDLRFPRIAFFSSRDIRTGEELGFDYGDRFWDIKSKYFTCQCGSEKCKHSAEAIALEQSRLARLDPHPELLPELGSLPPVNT

SMILES | Potency | activity, negative = inhibition
O=C(c1c(F)c(F)c(F)c(F)c1F)N1CCN(c2cccc(C(F)(F)F)c2)CC1 | inconclusive: 0.708 µM [inhibitor, partial curve, poor fit] | 
CC(=O)N1CCN(C(=O)c2cc(-c3ccc(C)o3)nc3ccccc23)CC1 |  | inactive: -3.86% [at 0.501 µM]
CCCCN(Cc1ccco1)S(=O)(=O)c1csc(C(N)=O)c1 | inactive | 
CCOC(=O)c1cc(C)n(CC2CCC(C(=O)Nc3ccc(OCC)cc3)CC2)c1C (stereo not drawn) | inactive | 
Nc1ccc(-c2nc3c(ccc4ccccc43)[nH]2)cc1 | inconclusive: 89.1 µM [inhibitor, single point] | 
COc1ccc(C2C(C(C)=O)=C(O)C(=O)N2CCO)c(OC)c1 (stereo not drawn) | active: 50.1 µM | 
CCCC[C@H]1C(=O)N(c2ccccc2)N(c2ccc(O)cc2)C1=O | active: 7.94 µM | 
Cc1ccc2oc(-c3cc(NC(=O)c4ccc5c(c4)OCCO5)cc(C)c3O)nc2c1 | inactive | 
Cc1ccc(C(=O)Cn2cncn2)cc1 | active: 50.1 µM | 
COc1ccc(-n2c3c(cc(C(=O)N4CCC(C)CC4)c2=O)C(=O)CC(C)(C)C3)cc1 | inconclusive: 89.1 µM [inhibitor, single point] | 
CC(Sc1nc2ncc(Cl)cc2[nH]1)C(=O)c1c(N)n(C)c(=O)n(C)c1=O (stereo not drawn) | inconclusive: 50.1 µM [inhibitor, partial curve] | 
COc1cccc(C2C=C(c3ccc(OC)cc3OC)Nc3nnnn32)c1 (stereo not drawn) | active: 44.7 µM | 
C=C(C)C(=O)Nc1ccc2c(c1)OCCOCCOCCO2 | active: 10 µM | 
COc1ccc(C2C(=O)N(C3CCCCC3)CC(=O)N2CCc2ccc(OC)c(OC)c2)cc1 (stereo not drawn) | inactive | 
O=c1[nH]c2cc3c(cc2cc1C(c1nnnn1CC1CCCO1)N1CCCCCC1)OCCO3 (stereo not drawn) | active: 11.2 µM | 
CC(C)C(NC(=O)c1ccccc1)C(=O)OCC(=O)N1CCCC1 (stereo not drawn) |  | inconclusive: -56.7% [inhibitor] [at 12.7 µM]
CC1CC[C@@]2(C(=O)O)CCC3(C)C(=CCC4[C@]5(C)CC(O)C(O)[C@](C)(CO)C5C(O)C[C@@]43C)C2C1C (stereo partly drawn) |  | inactive: -5.37% [at 2.33 µM]
CCOC(=O)c1c(C)n(S(=O)(=O)c2ccc(C)cc2)c2ccc(O)c(C(=O)O)c12 | inactive | 
O=C(COC(=O)c1ccc(O)cc1)Nc1ncc(Cl)cc1Cl | inconclusive: 44.7 µM [inhibitor, partial curve, poor fit] | 
CC1=C(C(=O)OCC(C)C)C(c2ccc(OCc3ccccc3)cc2)N2C(=O)CCSC2=N1 (stereo not drawn) | inactive | 
CCOc1ccccc1C(=O)Nc1cc(C)ccc1NC(=O)c1ccco1 | inconclusive: 2.24 µM [inhibitor, partial curve, poor fit] | 
Cc1ccccc1OCc1ccc(-c2nc(C#N)c(N3CCN(C)CC3)o2)o1 | active: 11.2 µM | 
O=C(COC(=O)c1cccnc1Cl)NCc1ccc2c(c1)OCO2 | inconclusive: 70.8 µM [inhibitor, single point] | 

SMILES | Potency | activity, negative = inhibition
O=C1/C(=C/c2cccnc2)SC(=S)N1c1ccccc1 | inconclusive: 35.5 µM [inhibitor, full curve] | 
N[C@@H](Cc1ccc(O)cc1)c1nnc([C@H](CCC(=O)O)NC(=O)C2CCNCC2)o1 | inconclusive: 0.708 µM [inhibitor, partial curve, poor fit] | 
CCn1cc(C2=NC(CCSC)CO2)c2ccccc21 (stereo not drawn) | inconclusive: 70.8 µM [inhibitor, single point] | 
CC(C)OCCCNC(=O)c1cc2c(s1)CS(=O)(=O)C2 | inconclusive: 70.8 µM [inhibitor, partial curve] | 
CCOC(=O)CSC(CC)C(=O)Nc1nnc(C(C)C)s1 (stereo not drawn) | inconclusive: 39.8 µM [inhibitor, single point] | 
CCC(C(=O)N1CCN(c2ccccc2F)CC1)n1nc(C)c2sc3ccccc3c2c1=O (stereo not drawn) | inactive | 
Cc1ccc(C2CC(c3cccs3)=NN2C(=O)CSC2=NN3CCCC(=O)N=C3S2)cc1 (stereo not drawn) | inconclusive: 0.708 µM [inhibitor, partial curve, poor fit] | 
Cc1ccc(C(=O)CN2C(=O)C(=O)N(Cc3ccccc3)C2=O)cc1 | inconclusive: 89.1 µM [inhibitor, partial curve, poor fit] | 
COc1cccc(OC)c1C(=O)Nc1ccc(S(=O)(=O)Nc2cc(C)nc(C)n2)cc1 | inconclusive: 89.1 µM [inhibitor, single point] | 
NCCN1CCN(S(=O)(=O)c2ccc([N+](=O)[O-])cc2)C=C1c1ccc(Cl)cc1 |  | inactive: 1.62% [at 0.501 µM]
COc1ccc(C(=O)NC(=S)Nc2ccccc2F)cc1 | inconclusive: 6.31 µM [inhibitor, single point] | 
COc1ccc(N2C(=O)CC(Sc3nc(C)cc(C)n3)C2=O)cc1OC (stereo not drawn) | inconclusive: 89.1 µM [inhibitor, single point] | 
COc1cccc(CN2CCNC(=O)C2CC(=O)NCc2cn3ccc(C)cc3n2)c1OC (stereo not drawn) | inactive | 
CCN(CC)C(=O)Cn1c(SCCOc2ccc(Cl)cc2)nc2ccccc21 | inconclusive: 39.8 µM [inhibitor, partial curve, poor fit] | 
Cc1cc(=O)[nH]c(SCC(=O)c2ccc(C)c(C)c2)n1 | inconclusive: 56.2 µM [inhibitor, partial curve, poor fit] | 
Cc1ccc(OCC(=O)Nc2ccc(F)cc2)c([N+](=O)[O-])n1 | inconclusive: 11.2 µM [inhibitor, partial curve, poor fit] | 
Cc1ncoc1C(=O)N1CCc2c([nH]c3ccccc23)C1c1ccccc1F (stereo not drawn) | active: 39.8 µM | 
CCOCCCN1CN(S(=O)(=O)c2ccc(Cl)cc2)c2nc3ccccc3nc21 |  | inactive: 5.35% [at 0.501 µM]
O=C(CCC(=O)Nc1nnc(C2CCCCC2)s1)NCc1cccs1 | inconclusive: 89.1 µM [inhibitor, partial curve, poor fit] | 
C[C@@H]1CC=C[C@H]2[C@H]1C(=O)N(Cc1ccccc1)[C@H]2c1cccc([N+](=O)[O-])c1 |  | inconclusive: -72.6% [inhibitor] [at 12.7 µM]
CCC(C)NC(=O)CSc1nc2scc(-c3ccccc3)c2c(=O)[nH]1 (stereo not drawn) | inconclusive: 100 µM [inhibitor, single point] | 
COc1ccc(CN2C(=O)c3cccnc3C2Nc2ccc(OC)c(Cl)c2)cc1 (stereo not drawn) | inconclusive: 89.1 µM [inhibitor, single point] | 
Cc1ccc(N2C(=O)NC(C(F)(F)F)(C(F)(F)F)C3=C2CC(C)(C)CC3=O)cc1 | inactive | 

SMILES | Potency | activity, negative = inhibition
Cc1nc2nc[nH]n2c(=O)c1CCC(C)C | inconclusive: 0.562 µM [inhibitor, full curve, poor fit] | 
CC(C)(C)N/N=C/c1cc(Cl)cc([N+](=O)[O-])c1O | inactive | 
O=C(O)Cc1sc(Nc2cccc3ccccc23)nc1-c1ccc(F)cc1 | active: 44.7 µM | 
COc1cc(NC(=O)COC(=O)CO/N=C(\C)c2ccc3c(c2)OCO3)cc(OC)c1 |  | inactive: 21.6% [at 12.7 µM]
CCOc1ccc(Cn2c(O)cc(=O)[nH]c2=O)cc1 | inconclusive: 11.2 µM [inhibitor, partial curve, poor fit] | 
Cc1ccn2cc(CNS(=O)(=O)c3ccc4c(c3)OCCO4)nc2c1 | inconclusive: 25.1 µM [inhibitor, full curve] | 
O=C(COC(=O)/C=C/c1ccc(Cl)cc1)Nc1ccc2c(c1)OCCO2 | inconclusive: 0.447 µM [inhibitor, partial curve, poor fit] | 
Cc1ccc2sc(N(CCCN(C)C)C(=O)CN3C(=O)c4ccccc4C3=O)nc2c1C | active: 50.1 µM | 
CC(=O)c1sc(Nc2ccc(C)cc2)nc1C | inconclusive: 39.8 µM [inhibitor, partial curve, poor fit] | 
O=C(CSc1nc2cc(Cl)ccc2s1)N1CCN(C(=O)c2ccco2)CC1 | active: 44.7 µM | 
CC1=C(C(=O)NCc2ccccc2)C(c2ccc(C)o2)n2ncnc2N1 (stereo not drawn) | inconclusive: 50.1 µM [inhibitor, partial curve, poor fit] | 
CCOC(=O)c1c(-c2ccc(C)o2)csc1N | active: 10 µM | 
CC(C)c1ccc2c(c1)C1(NN=C(c3ccccc3)S1)C(=O)N2 (stereo not drawn) | active: 17.8 µM | 
CCn1c(SCC(=O)c2ccc(Cl)cc2)nnc1C(C)C | inconclusive: 31.6 µM [inhibitor, single point] | 
COc1ccc(C2/C(=C(\O)c3ccc4c(c3)OCCO4)C(=O)C(=O)N2Cc2cccnc2)cc1OC (stereo not drawn) | inconclusive: 50.1 µM [inhibitor, partial curve, poor fit] | 
CCSc1nc2sc3c(c2c(=O)n1C1CCCCC1)CCN(C)C3 | inconclusive: 3.98 µM [inhibitor, full curve] | 
COc1ccc([N+](=O)[O-])cc1NCC(=O)Nc1cc(S(=O)(=O)N2CCCCC2)ccc1C |  | inactive: 21.6% [at 12.7 µM]
CCN=C1S/C(=C\c2ccc(-c3cccc(C(=O)O)c3)o2)C(=O)N1CC | active: 39.8 µM | 
COc1cc(C#N)c(NC(=S)N2CCOCC2)cc1OC | inconclusive: 56.2 µM [inhibitor, partial curve, poor fit] | 
CC(C)Oc1ccc(CNC(=O)CCn2c(=O)c3cccn3c3ccc(F)cc32)cc1 | inactive | 
Cc1ccc(S(=O)(=O)c2cc3c(=O)n4ccccc4nc3n(C)c2=N)cc1C | inconclusive: 89.1 µM [inhibitor, single point] | 
O=C(c1ccccc1)c1nn(-c2ccc(Cl)cc2)cc1C(=O)c1cc2ccccc2oc1=O | inconclusive: 28.2 µM [inhibitor, partial curve, poor fit] | 
